# Source: PubChem BioAssay AID504332 (National Center for Advancing Translational Sciences (NCATS), 2011)
# The campaign covered roughly 350,000 compounds. About 31,000 (8.9%) were called active. Inconclusive means that the source gave no clear call. Such entries were picked first, then a sample of the others. Calls follow the shape of the dose curve; as a rule, active = well fitted inhibition curve with a large enough effect; inconclusive = small, poorly fitted or top-dose-only effect; inactive = no such curve, though single readings can be large or run the other way. Where the call is inconclusive, the potency comes from a doubtful curve fit.
# Target: Histone-lysine N-methyltransferase EHMT2 (Homo sapiens) (UniProt Q96KQ7)
# UniProt Q96KQ7, sequence (Q96KQ7 whole entry, looked up): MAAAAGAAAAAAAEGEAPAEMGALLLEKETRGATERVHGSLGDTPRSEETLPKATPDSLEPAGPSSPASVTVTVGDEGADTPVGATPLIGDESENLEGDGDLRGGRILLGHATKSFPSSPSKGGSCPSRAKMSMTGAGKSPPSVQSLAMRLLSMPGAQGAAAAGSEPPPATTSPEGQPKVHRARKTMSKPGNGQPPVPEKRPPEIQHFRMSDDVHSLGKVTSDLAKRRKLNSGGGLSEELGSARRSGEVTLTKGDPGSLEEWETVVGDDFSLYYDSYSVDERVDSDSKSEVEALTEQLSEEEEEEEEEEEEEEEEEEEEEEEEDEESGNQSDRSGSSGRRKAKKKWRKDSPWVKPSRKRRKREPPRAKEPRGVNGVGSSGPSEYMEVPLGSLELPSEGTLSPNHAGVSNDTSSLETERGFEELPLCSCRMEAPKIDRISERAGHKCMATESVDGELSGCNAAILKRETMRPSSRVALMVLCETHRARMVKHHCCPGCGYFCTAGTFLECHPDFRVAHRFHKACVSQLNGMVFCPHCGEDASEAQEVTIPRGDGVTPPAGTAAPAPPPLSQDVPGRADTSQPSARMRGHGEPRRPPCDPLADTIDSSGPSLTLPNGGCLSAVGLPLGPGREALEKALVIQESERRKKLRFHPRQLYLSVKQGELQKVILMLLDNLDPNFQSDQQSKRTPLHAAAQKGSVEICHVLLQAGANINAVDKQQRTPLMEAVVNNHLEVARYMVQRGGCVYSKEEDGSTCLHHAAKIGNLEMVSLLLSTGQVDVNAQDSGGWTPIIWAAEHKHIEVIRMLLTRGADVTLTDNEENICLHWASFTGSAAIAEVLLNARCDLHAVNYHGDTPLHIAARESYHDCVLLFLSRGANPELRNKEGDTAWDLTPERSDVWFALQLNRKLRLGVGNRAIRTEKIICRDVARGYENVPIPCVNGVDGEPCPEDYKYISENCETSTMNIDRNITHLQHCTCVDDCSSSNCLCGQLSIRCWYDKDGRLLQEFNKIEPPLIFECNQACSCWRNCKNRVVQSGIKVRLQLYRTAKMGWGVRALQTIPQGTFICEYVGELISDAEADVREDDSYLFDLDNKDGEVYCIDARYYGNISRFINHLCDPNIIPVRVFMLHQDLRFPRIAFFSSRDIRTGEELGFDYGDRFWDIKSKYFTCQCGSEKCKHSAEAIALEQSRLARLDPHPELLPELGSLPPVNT
# Assay: qHTS Assay for Inhibitors of Histone Lysine Methyltransferase G9a; also: nearly all actives have a fitted effect of over 75% in size
# Details: G9a H3K9 monomethylation, AlphaScreen, 2 h; activity, negative = inhibition: at 59 µM (top of the series) unless noted
# Method in brief: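 Enzyme 20 nM + cpd, 15 min RT; add b-H3K9 pep 500 nM / SAM 20 uM; 2 h RT; anti-H3K9me1 Ab 0.5 ug/mL + SA donor / anti-rabbit acceptor beads 20 ug/mL each, 10 min; AlphaScreen read.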
# % is scaled to controls: 0 for no effect and ±100 for the full control effect; potency is read from the fitted curve at half-maximal effect; tags tell the direction and shape of the fitted curve.
Structure (SMILES),Potency,"activity, negative = inhibition"
COc1ccc(N2CCN(C(=O)Cn3nnc(-c4cccs4)n3)CC2)cc1,"inconclusive: 5.62 µM [inhibitor, single point]",
COc1cccc(CNC(=O)c2cnc(N3CCCCC3)c3ccccc23)c1,,inactive: 24.4%
CS(=O)(=O)Nc1cccc(C2=NN(S(=O)(=O)c3ccccc3)C(c3ccco3)C2)c1 (stereo unspecified),active: 50.1 µM,
c1ccc(-c2csc(NNC3=NCCCCC3)n2)cc1,active: 10 µM,
O=C(c1ccco1)N1CCN(CC(=O)N2c3ccccc3CCc3ccccc32)CC1,"inconclusive: 1.12 µM [inhibitor, partial curve, poor fit]",
CC(C)(C)c1ccc(C(=O)C2CCCN(C(=O)C3CCOCC3)C2)cc1 (stereo unspecified),"inconclusive: 25.1 µM [inhibitor, partial curve]",
CCOc1ccccc1NC(=O)CN(c1ccc(Cl)cc1)S(C)(=O)=O,,inactive: 4.06% [at 102 µM]
O=C(C1=C[C@H](c2ccc(Br)cc2)C[C@H](OCCCCO)O1)N1CCN(Cc2ccc3c(c2)OCO3)CC1,,inconclusive: -58.8% [inhibitor]
NS(=O)(=O)c1cccc(NC(=O)CSc2ccccn2)c1,"inconclusive: 39.8 µM [inhibitor, partial curve, poor fit]",
CCc1cc(C(=O)O)c(NC(=O)C(c2ccccc2)c2ccccc2)s1,,inactive: -8.82%
Cc1cc(C)cc(-n2c(SCC(N)=O)nc3c([nH]c4ccccc43)c2=O)c1,,inactive: 2.98%
CCNC(=S)N1CCN(Cc2ccccc2)CC1,active: 15.8 µM,
COc1ccc(NC(=O)COC(=O)c2cc(=O)c3ccccc3o2)cc1OC,"inconclusive: 6.31 µM [inhibitor, single point]",
Cc1ccc(Cn2c(C(=O)O)c(CNC3CCCC3)c3ccc(C)cc32)cc1,,inactive: -27.7%
Cc1cc(NC(=O)CSc2nc3c(C)ccc(C)c3cc2C#N)no1,"inconclusive: 79.4 µM [inhibitor, single point]",
Cc1cccc2c(C(=O)N3CCN(C(=O)c4ccco4)CC3)cc(-c3cccc(Br)c3)nc12,,inconclusive: -85.2% [inhibitor]
O=C(c1ccc(-n2cncn2)c([N+](=O)[O-])c1)N1CCN(S(=O)(=O)c2ccc(F)c(F)c2)CC1,,inactive: -34.9% [at 102 µM]
CCOc1cc(/C=C/C(=O)N(CC)CC(=O)NCc2cccs2)cc(Cl)c1OC,,inactive: -4.68% [at 102 µM]
O=C1CN(C(=O)COc2ccccc2Cl)c2ccccc2N1,"inconclusive: 25.1 µM [inhibitor, single point]",
O=C(CCCOc1ccc(Br)cc1)Nc1ccc(S(=O)(=O)N2CCOCC2)cc1,,inactive: -33.4% [at 102 µM]
O=C(CC1(O)C(=O)N(C/C=C/c2ccccc2)c2ccccc21)c1ccccn1 (stereo unspecified),active: 50.1 µM,
O=C(Nc1ccccc1N1CCOCC1)c1ccc(Cl)c(S(=O)(=O)NCc2ccco2)c1,"inconclusive: 44.7 µM [inhibitor, partial curve, poor fit]",
C/C(CC(=O)Nc1ccccn1)=N\NC(=O)C(=O)Nc1cccc(Cl)c1C,,inactive: 2.51% [at 102 µM]
CCN(CC)CCCN(C(=O)c1ccco1)c1nc(-c2ccc(C)cc2)cs1,"inconclusive: 44.7 µM [inhibitor, partial curve, poor fit]",

Structure (SMILES),Potency,"activity, negative = inhibition"
CCC1=NN(C(=O)C(=O)Nc2ccc(Br)cc2)C(O)(C(F)(F)F)C1 (stereo unspecified),,inactive: 20.8%
O=C(c1ccco1)N1CCN(Cc2cc(=O)oc3cc(O)ccc23)CC1,active: 22.4 µM,
CC(C)c1cc(C(=O)Nc2sc3c(c2C#N)CCC3)no1,"inconclusive: 4.47 µM [inhibitor, partial curve, poor fit]",
CCOC(=O)CSc1nc2c(c(-c3ccc(C)o3)c1C#N)CCCC2,"inconclusive: 3.16 µM [inhibitor, partial curve, poor fit]",
COc1cc(C(=O)N2CCN(C(=O)Cc3ccccc3)CC2)cc(OC)c1OC,"inconclusive: 100 µM [inhibitor, single point]",
Cc1nn2c(C)c(C(=O)Nc3ccccc3)cnc2c1-c1ccccc1,,inactive: 19.8% [at 102 µM]
COc1ccc(C(=O)COC(=O)c2cnc(C)cn2)cc1OC,"inconclusive: 31.6 µM [inhibitor, single point]",
CCCCCc1nc2sc3c(c2c(=O)n1NC(=O)c1ccc([N+](=O)[O-])cc1)CC(C)(C)OC3,active: 70.8 µM,
CCc1ccc(N=C2NC(=O)/C(=C/c3ccc(OCC(=O)O)cc3)S2)cc1,active: 50.1 µM,
Cc1ccc(/C=C/C(=O)Nc2cc(S(=O)(=O)N3CCCCCC3)ccc2OCC(F)(F)F)o1,"inconclusive: 25.1 µM [inhibitor, single point]",
COc1ccc2c(c1)C=C(CN1CCC(CO)(CCc3ccccc3)CC1)CO2,"inconclusive: 39.8 µM [inhibitor, partial curve]",
Cc1cc(NC(=O)CSc2c[nH]c3ccccc23)no1,,inactive: 27.4% [at 102 µM]
CN(C)CCCn1cnc2c1c(=O)[nH]c(=O)n2Cc1ccccc1,"inconclusive: 79.4 µM [inhibitor, single point]",
O=C(COC(=O)c1ccc(=O)[nH]c1)Nc1cccc(S(=O)(=O)N2CCOCC2)c1,"inconclusive: 50.1 µM [inhibitor, partial curve, poor fit]",
CC(C)Cn1c(N)c(C(=O)CSc2cc(Cl)ccc2Cl)c(=O)n(C)c1=O,"inconclusive: 4.47 µM [inhibitor, partial curve, poor fit]",
CCCCn1c(=NC(=O)c2cc3ccccc3o2)c(C(=O)OCC)cc2c(=O)n3ccccc3nc21,"inconclusive: 1 µM [inhibitor, full curve, poor fit]",
COC(=O)c1ccc(OCCCCN(C)Cc2ccccc2)cc1,active: 10 µM,
Cc1ccc(Nc2nnc(SCC(=O)Nc3ccc(S(=O)(=O)N4CCOCC4)cc3)s2)cc1,"inconclusive: 39.8 µM [inhibitor, partial curve, poor fit]",
Clc1ccc(OCCn2ccnc2)c(Br)c1,active: 12.6 µM,
C=C(C)Cn1c(SCC(=O)N/N=C/c2c(O)ccc3ccccc23)nc2ccccc2c1=O,"inconclusive: 39.8 µM [inhibitor, single point]",
COc1cc2c(cc1OC)C(c1ccc(-c3ccc(Cl)cc3Cl)o1)=NCC2,"inconclusive: 89.1 µM [inhibitor, single point]",
COc1ccc(-c2onc(C)c2C)cc1S(=O)(=O)NCC1CCN(Cc2cc(C)ccc2C)CC1,,inactive: -32.8%
COc1ccc(Cn2ccnc2SCC(=O)NCc2ccco2)cc1,,inactive: 1.84%
Cn1c(=O)c2c(nc(SCC(=O)N3CCOCC3)n2C)n(C)c1=O,,inactive: -4.53%

Structure (SMILES),Potency,"activity, negative = inhibition"
Cc1cccc(N2CCN(S(=O)(=O)c3ccc4c(c3)CC(=O)N4C)CC2)c1C,,inactive: -22.2%
Cc1ccc(S(=O)(=O)N2CCN(C(=O)C3CC3C)CC2)c(C)c1 (stereo unspecified),,inactive: -3.15% [at 102 µM]
O=C(Nc1ccccc1F)Nc1cc(S(=O)(=O)N2CCOCC2)ccc1N1CCCC1,"inconclusive: 56.2 µM [inhibitor, partial curve, poor fit]",
COc1ccc(S(=O)(=O)Cc2ccc(C(=O)N3CCN(C(=O)c4ccco4)CC3)o2)cc1,"inconclusive: 10 µM [inhibitor, partial curve, poor fit]",
CCCCc1noc(-c2c(-c3ccccc3Cl)noc2C)n1,,inactive: 253% [at 102 µM]
O=S(=O)(Nc1ccccn1)c1ccc(-n2cccn2)cc1,,inactive: 14.6% [at 102 µM]
O=C(CSCc1cnn(-c2ccccc2)c1-n1cccc1)NCc1cccs1,"inconclusive: 89.1 µM [inhibitor, single point]",
COc1ccc(C(=O)OCC(=O)c2c(N)n(C)c(=O)n(C)c2=O)cc1OC,,inactive: -23.9% [at 102 µM]
COC(=O)CN(c1ccc(C)cc1)S(=O)(=O)c1c(C)[nH]c(=O)[nH]c1=O,"inconclusive: 3.98 µM [inhibitor, partial curve, poor fit]",
CCOc1cc(/C=N/NC(=O)C(=O)NC)cc(Br)c1O,"inconclusive: 5.62 µM [inhibitor, full curve, poor fit]",
O=C(C1CCCN(S(=O)(=O)c2ccc(Br)s2)C1)N1CCN(c2ccccc2F)CC1 (stereo unspecified),"inconclusive: 31.6 µM [inhibitor, single point]",
COc1ccc(OC)c(NC(=O)Cn2c(CCC(=O)O)ccc2-c2cccs2)c1,"inconclusive: 39.8 µM [inhibitor, single point]",
COc1c(O)c(=O)n2c3ccccc3c3ccnc1c32,"inconclusive: 3.55 µM [inhibitor, single point]",
Cc1ccc(-c2nn(-c3ccccc3)cc2C(=O)NN2CCN(C)CC2)cc1,"inconclusive: 25.1 µM [inhibitor, full curve]",
CCCCCC(=O)N(CN1C(=O)CCC1=O)c1ccccc1,,inactive: -9.59%
Cc1ccc(Nc2c(-c3ccccc3)nc3cnccn23)cc1,,inactive: 9.62% [at 102 µM]
O=C(NCCN1CCOCC1)c1cc(-c2ccc(Cl)cc2)on1,"inconclusive: 89.1 µM [inhibitor, partial curve, poor fit]",
CC(C)Cc1ccc(S(=O)(=O)N2CCN(Cc3noc(CCC(=O)N4CCCCC4)n3)CC2)cc1,"inconclusive: 4.47 µM [inhibitor, full curve, poor fit]",
Cn1nnnc1SCCNCc1ccccc1OCc1ccccc1Cl,"inconclusive: 50.1 µM [inhibitor, partial curve]",
COc1cccc(CN2CCN(c3cccc(C(F)(F)F)c3)CC2)c1OC,active: 6.31 µM,
Cc1ccc(C2=NS(=O)(=O)N(C)C(C(=O)Nc3ccc(F)cc3F)=C2)cc1,active: 70.8 µM,
CCOc1ccc(/C=N/Nc2nncc(-c3ccccc3)n2)cc1OC,,inactive: 16% [at 102 µM]
Cc1ccc(Cl)cc1NC(=O)Cn1c(=O)n(CCC(=O)NCc2ccc3c(c2)OCO3)c(=O)c2sccc21,"inconclusive: 39.8 µM [inhibitor, partial curve, poor fit]",
